Test results reported in the supplement of paper PMC3334620.
In all, about 33,000 sequences were measured (“E-score (-0.5 to 0.5)”: median about -0.054, highest 2% from about 0.39 on). The list shows a part of the results.

The sequences below were run against Ylr278c (UniProt Q05854) (assay: PBM E-score (8-mer binding enrichment) (E-score (-0.5 to 0.5)); higher = stronger / more preferred TF binding; most listed sequences are background and not binding sites). Conditions: protein concentration: 200 nM; construct: GST-DNA-binding domain.
How it was run: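 The E-score, a modified Wilcoxon-Mann-Whitney statistic, was computed by the Universal PBM Analysis Suite for every ungapped eight-base word pooled with its reverse complement. Scans behind it were normalised with masliner after bound GST-tagged yeast transcription factors were detected with fluorescent anti-GST. The proteins, at about 100-200 nM, had been applied to universal all-10-mer Agilent arrays made double-stranded by primer extension.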
For ACCCATTG, the “PBM E-score” value was -0.0372. With ACGTTGCC the “PBM E-score” value was -0.202. In the case of CCACTAAA, the “PBM E-score” value is reported as -0.0539. ACAACGCA was tested, and the “PBM E-score” value was -0.0656. AGTTGGAG was tested, and the “PBM E-score” value was -0.0906. In the case of CGCCTCAG, the “PBM E-score” value is reported as 0.0353. ATTTGATC was tested, and the “PBM E-score” value was 0.00681. For AATACCCC, the “PBM E-score” value was 0.3. In the case of CCTAGAAC, the “PBM E-score” value is reported as -0.0753. With CCTATCTA the “PBM E-score” value was -0.184. With AAAACCAG the “PBM E-score” value was -0.16. In the case of ATGGAATA, the “PBM E-score” value is reported as 0.0454. For ATCCGTCG, the “PBM E-score” value was 0.236. In the case of TAATCCCA, the “PBM E-score” value is reported as -0.1. For GATTGGAC, the “PBM E-score” value was -0.0691. For AGCAACAA, the “PBM E-score” value was -0.0492. ACGGTGAT was tested, and the “PBM E-score” value was 0.0226. CAACGCGC was tested, and the “PBM E-score” value was 0.101. In the case of AATATCTC, the “PBM E-score” value is reported as 0.0682. For ATATTGCG, the “PBM E-score” value was 0.0799. In the case of ACTCATTA, the “PBM E-score” value is reported as -0.0588. With ACAGAGCA the “PBM E-score” value was -0.0805. GTCCTCGA was tested, and the “PBM E-score” value was -0.178. ACAGAGAT was tested, and the “PBM E-score” value was -0.115. In the case of CACGCACG, the “PBM E-score” value is reported as -0.0239. With ATTGGGTG the “PBM E-score” value was 0.0985. ATTTTGCC was tested, and the “PBM E-score” value was 0.0962. With CATCGTGG the “PBM E-score” value was -0.18. With ACCGTGGG the “PBM E-score” value was -0.138. With TGCAGTAA the “PBM E-score” value was -0.0162. GTCCGGAA was tested, and the “PBM E-score” value was 0.44. ACTAGGCA was tested, and the “PBM E-score” value was -0.197. AGGTCGCA was tested, and the “PBM E-score” value was 0.0752. In the case of AGGAGGGA, the “PBM E-score” value is reported as -0.231. GTTTCAAA was tested, and the “PBM E-score” value was -0.133. For GACACCAC, the “PBM E-score” value was 0.0102. AGATAAAT was tested, and the “PBM E-score” value was -0.0981. ACGGCAGC was tested, and the “PBM E-score” value was 0.0662. For CGTAGTGA, the “PBM E-score” value was -0.147. For ACATACTC, the “PBM E-score” value was -0.0476. For AATGTAGC, the “PBM E-score” value was -0.00079. For GTCACTCA, the “PBM E-score” value was 0.0412. In the case of CAGGCGGA, the “PBM E-score” value is reported as 0.327. TAAAGAGA was tested, and the “PBM E-score” value was -0.0998. ACTGCGTG was tested, and the “PBM E-score” value was -0.32. With GCAATCTA the “PBM E-score” value was -0.0551. With GCAGCTCA the “PBM E-score” value was -0.0696. For CAGCGATC, the “PBM E-score” value was 0.0651. For TGATAACA, the “PBM E-score” value was -0.0719. For GGAACGCC, the “PBM E-score” value was 0.265. ACGGCCTG was tested, and the “PBM E-score” value was 0.0277. CCACCTGA was tested, and the “PBM E-score” value was 0.0378. For AACACCGC, the “PBM E-score” value was 0.27. In the case of AAAATCAA, the “PBM E-score” value is reported as 0.0309. ATCACTAC was tested, and the “PBM E-score” value was -0.223. In the case of TGTCTTAA, the “PBM E-score” value is reported as -0.0397. AGTTCGGA was tested, and the “PBM E-score” value was 0.391. In the case of ATTTGCAA, the “PBM E-score” value is reported as -0.0483. With GTTTAATA the “PBM E-score” value was -0.158. With AAGCCGAA the “PBM E-score” value was 0.271. In the case of ACTGACTA, the “PBM E-score” value is reported as -0.281. For ACCTCTAT, the “PBM E-score” value was -0.176. With CCGTACCC the “PBM E-score” value was 0.13. In the case of CGCCGCCA, the “PBM E-score” value is reported as 0.242. With AAAACCTA the “PBM E-score” value was -0.121. AAGTAAAA was tested, and the “PBM E-score” value was -0.0136. AATCCAAG was tested, and the “PBM E-score” value was -0.118. In the case of TCCGGACA, the “PBM E-score” value is reported as 0.456. In the case of TACCTATA, the “PBM E-score” value is reported as -0.276. With GCTCGTAA the “PBM E-score” value was -0.137. In the case of GCCACTAA, the “PBM E-score” value is reported as -0.198. For ACTCGGCA, the “PBM E-score” value was 0.191. In the case of GCACACAA, the “PBM E-score” value is reported as -0.0901. AAGTGTCA was tested, and the “PBM E-score” value was -0.226. For CAAATGTG, the “PBM E-score” value was 0.154. For AGGGAGAT, the “PBM E-score” value was -0.207. For AAGTGAAC, the “PBM E-score” value was -0.16. For GTGCTCCA, the “PBM E-score” value was -0.118. ACAAAAGC was tested, and the “PBM E-score” value was 0.00138. ATGATACC was tested, and the “PBM E-score” value was -0.0306. With AACGCTGC the “PBM E-score” value was -0.0726. In the case of TATCAATA, the “PBM E-score” value is reported as -0.26. With AACCACAC the “PBM E-score” value was 0.00031. With ATTGGAAA the “PBM E-score” value was -0.119. For AGTAAAAT, the “PBM E-score” value was -0.0219. In the case of GCCTAACA, the “PBM E-score” value is reported as -0.038. For CAATGCAA, the “PBM E-score” value was -0.171. GTACCTTA was tested, and the “PBM E-score” value was 0.00273. With CGGAGACC the “PBM E-score” value was 0.406. For CTGACAGA, the “PBM E-score” value was 0.0452. CTATTAAG was tested, and the “PBM E-score” value was -0.195. With AGCCGCCA the “PBM E-score” value was 0.143. With TCACGGAA the “PBM E-score” value was 0.324. AAGCATCC was tested, and the “PBM E-score” value was 0.025. In the case of CGGGCTCA, the “PBM E-score” value is reported as 0.109. GTGTTACA was tested, and the “PBM E-score” value was 0.034. For GACGACAA, the “PBM E-score” value was 0.149. With AAACGCTA the “PBM E-score” value was -0.297. AGGCGATA was tested, and the “PBM E-score” value was -0.0436. GCCGTAGC was tested, and the “PBM E-score” value was 0.0362. CGTCAGAG was tested, and the “PBM E-score” value was -0.202. In the case of GGGCCTAC, the “PBM E-score” value is reported as -0.138. For CACTGGCG, the “PBM E-score” value was -0.253. In the case of ATGTCCCG, the “PBM E-score” value is reported as 0.319. GCACCACC was tested, and the “PBM E-score” value was 0.0569. CCTACAAA was tested, and the “PBM E-score” value was -0.0722. With ACTGTGCT the “PBM E-score” value was -0.207. For ACCCGAGA, the “PBM E-score” value was 0.16. In the case of AGACCCGG, the “PBM E-score” value is reported as 0.292. CGGTGAGA was tested, and the “PBM E-score” value was 0.0291. For CAATACAC, the “PBM E-score” value was -0.124. CGCCATAC was tested, and the “PBM E-score” value was -0.0741. For CCGAAGTA, the “PBM E-score” value was 0.304. With AGTTTTAT the “PBM E-score” value was 0.0328. TAGAAGAA was tested, and the “PBM E-score” value was -0.0317. AATCAACT was tested, and the “PBM E-score” value was -0.0329. For CAAATAAC, the “PBM E-score” value was -0.0321. AACCATTC was tested, and the “PBM E-score” value was -0.055. In the case of CAATGCCA, the “PBM E-score” value is reported as -0.0649. CGTTCTTA was tested, and the “PBM E-score” value was 0.0705. With ACATCGCC the “PBM E-score” value was 0.152. CGACATAG was tested, and the “PBM E-score” value was -0.201. For TGGCATAA, the “PBM E-score” value was -0.0936. For TCCTGCAA, the “PBM E-score” value was -0.143. CGTACGCA was tested, and the “PBM E-score” value was -0.00823. With GGGGCGAC the “PBM E-score” value was 0.00382. In the case of TGACTGCA, the “PBM E-score” value is reported as -0.293. In the case of CTGGAGAC, the “PBM E-score” value is reported as -0.222. With AAAGGACG the “PBM E-score” value was -0.22. With AAAAATTG the “PBM E-score” value was 0.022. With TGCATCAA the “PBM E-score” value was -0.153. In the case of ATATAAAG, the “PBM E-score” value is reported as 0.0298. In the case of GGCGCATA, the “PBM E-score” value is reported as 0.0769. For CAAGACCG, the “PBM E-score” value was 0.248. In the case of ACTGCCTC, the “PBM E-score” value is reported as -0.05. With CATGAGAC the “PBM E-score” value was -0.103. In the case of CTCTGAAG, the “PBM E-score” value is reported as -0.169. With ATCATCCA the “PBM E-score” value was -0.183. For TGGCCTAA, the “PBM E-score” value was -0.206. AACCGTCT was tested, and the “PBM E-score” value was -0.151. CACATCGC was tested, and the “PBM E-score” value was 0.0217. AAAACGTC was tested, and the “PBM E-score” value was -0.189. With AAAGCCAC the “PBM E-score” value was -0.0974. With AGGCCCGC the “PBM E-score” value was 0.169. In the case of GTCAAAAC, the “PBM E-score” value is reported as 0.0952. For GATAGTAA, the “PBM E-score” value was 0.0249. TATGTACA was tested, and the “PBM E-score” value was -0.123. In the case of CCCACTAG, the “PBM E-score” value is reported as -0.143. With GTGAGCTA the “PBM E-score” value was -0.185. For CGTAAGCC, the “PBM E-score” value was -0.00437. For GTAGGTGA, the “PBM E-score” value was -0.135. With TCAGATGA the “PBM E-score” value was -0.109. AGTAATAG was tested, and the “PBM E-score” value was -0.18. With CGATGGCC the “PBM E-score” value was 0.049. For CTCGACTA, the “PBM E-score” value was -0.158. In the case of AGGGGCCA, the “PBM E-score” value is reported as -0.124. CAGGGCAC was tested, and the “PBM E-score” value was -0.1. In the case of GCAGTACC, the “PBM E-score” value is reported as -0.0729. With ATCTGTAG the “PBM E-score” value was -0.138. With TACACGGA the “PBM E-score” value was 0.254. For GCCACAGC, the “PBM E-score” value was -0.111. For AACTCAAA, the “PBM E-score” value was -0.0947. In the case of AAGCGACG, the “PBM E-score” value is reported as 0.131. In the case of TATCTAAA, the “PBM E-score” value is reported as 0.0511. In the case of AAAAAGCC, the “PBM E-score” value is reported as 0.263. AGATTGTA was tested, and the “PBM E-score” value was -0.172. GGTTTCGA was tested, and the “PBM E-score” value was 0.0806. ATGGGGAG was tested, and the “PBM E-score” value was -0.195. With CCGGTAAG the “PBM E-score” value was 0.337. For GCGCTCTA, the “PBM E-score” value was -0.0491. With TAACGCGA the “PBM E-score” value was -0.0778. In the case of GATCGCGA, the “PBM E-score” value is reported as 0.155.
